Reference: PubChem BioAssay AID1346428 (National Center for Advancing Translational Sciences (NCATS), 2018)
Screen size: about 48,000 compounds; about 1,200 (2.5%) were called active. Roughly 2% stayed inconclusive and do not appear here.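 How the source made its calls: active means activation of at least 60% and not above a set upper limit (about 1 call in 100 departs from these limits); inconclusive means activation of 40% to 60%, or above that upper limit; inactive means activation under 40%.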 This is one part of the list.

Target: Probable G-protein coupled receptor 32 (Homo sapiens) (UniProt O75388)
Sequence of UniProt O75388 (O75388 whole entry, looked up): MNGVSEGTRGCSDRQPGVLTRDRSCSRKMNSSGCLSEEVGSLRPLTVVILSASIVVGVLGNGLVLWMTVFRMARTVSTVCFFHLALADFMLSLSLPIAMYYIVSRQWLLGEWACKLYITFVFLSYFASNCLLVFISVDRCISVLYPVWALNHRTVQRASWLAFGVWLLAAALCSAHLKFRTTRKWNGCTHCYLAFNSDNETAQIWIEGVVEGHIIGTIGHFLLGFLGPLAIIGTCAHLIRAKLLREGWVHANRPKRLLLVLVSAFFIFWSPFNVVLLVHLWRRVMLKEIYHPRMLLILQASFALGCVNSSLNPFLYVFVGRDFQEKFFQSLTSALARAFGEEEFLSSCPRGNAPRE
Test: qHTS for Agonists of Human Resolvin D1 Receptor DRV1; further: 0% is about no effect
Settings: CHO-K1 GPR32 beta-arrestin PathHunter luminescence, 90 min; at 76.9 µM; stronger effect = higher value; zero percent set by DMSO-only wells
In short: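 Readings come from a cell-based beta-arrestin complementation format: CHO-K1 GPR32 stable cells (2,500/well) treated 90 min with compounds, then beta-Gal substrate added for 1 h before chemiluminescence imaging.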

activation, active:
Cc1cccc(NS(=O)(=O)c2ccc3nc(-c4ccccc4)[nH]c3c2)c1C 86.5%

activation, inactive:
Cc1nc2nc(SCC(=O)N(Cc3ccccc3)C(C)C)nn2c(C)c1Cc1ccccc1Cl -35.8%
CSc1ccc(CCNc2ncnc3onc(-c4ccc(Cl)cc4)c23)cc1 -11.2%
Cc1cc(C)c2sc(N3CCN(C(=O)C4CC4)CC3)nc2c1 32.6%
Cc1cc(C)c(NC(=O)Cn2c(=O)n(-c3ccc(F)cc3)c(=O)c3c(C)c(C(=O)N(C)C)sc32)c(C)c1 -12.2%
COc1ccc(Oc2nc3c(C)cccn3c(=O)c2/C=C(\C#N)c2nc3ccccc3[nH]2)cc1 -24.8%
CCc1ccc2ncc3c(-c4ccc(C)cc4)nn(CC(=O)Nc4ccc(C)cc4)c3c2c1 -4.44%
COc1ccc(C(=O)c2sc(Nc3cc(Cl)ccc3C)nc2N)cc1OC 5.49%
COC(=O)c1cc2occc2n1Cc1nc(-c2cccc(Br)c2)oc1C -12.5%
CCCOc1cccc(C2c3c(oc4ccc(F)cc4c3=O)C(=O)N2Cc2ccc3c(c2)OCO3)c1 (centres undefined) 1.24%
Cc1nc(-n2nc(C)c(Cc3ccc4c(c3)OCO4)c2C)sc1C(=O)Nc1ccc(Cl)cc1 -6.19%
Cc1ccc2nc(N3CCN(c4ccccc4F)CC3)c3nnnn3c2c1 3.06%
COc1ccc(CC(=O)NCc2ccc3c(c2)CCN3C(=O)c2cccc(C)c2)cc1 -13.4%
Cc1ccc(-n2cnc3cc(C(=O)NCc4ccccc4Cl)ccc32)c(C)c1 -16.5%
O=C(O)C(Cc1cc(I)c(O)c(I)c1)c1ccccc1 (centres undefined) 16.5%
CCCCN(Cc1ccco1)C(=O)Cn1ncc2c([nH]c3ccccc32)c1=O 6.33%
CN1CCSc2ccc(C(=O)NCc3ccccc3)cc21 -5.2%
O=C(c1ccco1)n1nc(-c2ccc(Cl)cc2)nc1NCc1ccc(F)cc1 -0.765%
Cc1cccc(Cn2cccc2CNS(=O)(=O)c2ccc(C)c(C)c2)c1 -9.97%
Cc1ccc(NC(=O)Cn2c(=O)n(CCC(=O)NCc3ccccc3Cl)c(=O)c3ccccc32)c(C)c1 -0.352%
CCOC(=O)c1scc(-c2ccc(C)cc2)c1S(=O)(=O)Nc1ccc(OC)c(Cl)c1 -23.7%
COc1ccc(C2C(C(=O)Nc3ccccc3)=C(C)Nc3nc(-c4ccccc4Cl)nn32)cc1OC (centres undefined) -6.52%
CCOCCCNc1nc2cc(OC)c(OC)cc2c2nc(-c3ccccc3)nn12 19%
O=C(Nc1ccc2nc(SCCOc3ccccc3)sc2c1)c1ccc2c(c1)OCO2 22.4%
Clc1ccccc1Nc1ncnc2c1nc1n2CCCCC1 49.1%
Cc1cccc(Cn2c(=O)n(CC3CCC(C(=O)N4CCC(C)CC4)CC3)c(=O)c3sccc32)c1 (centres undefined) -5.83%
O=C(CSc1cn(CC(=O)N2CCCC2)c2ccccc12)Nc1ccccc1C(F)(F)F -21.7%
COc1cc2[nH]c(=O)n(CCCCCC(=O)N3CCN(c4ccc(Cl)cc4)CC3)c(=O)c2cc1OC -1.71%
Cc1nc2cc(-c3ccccc3)nn2c(C)c1CCC(=O)NCc1cccc(Cl)c1 22.6%
Cc1ccc(CNC(=O)CN(c2cc(C)cc(C)c2)S(=O)(=O)c2c(C)noc2C)cc1 11.7%
O=C(Nc1cccc(Br)c1)c1cc(-c2ccc3c(c2)OCCO3)on1 28.3%
Cc1nc2ccn(Cc3cccs3)c(=O)c2cc1C(=O)N1CCN(c2ccccc2)CC1 -19%
COC(=O)c1ccccc1NC(=O)c1ccc2c(Cl)c3c(nc2c1)CCCC3 25.4%
COc1ccc2c(c1)cc1c(=O)n(CC(=O)NCCc3ccccc3)nc(C)n12 -4.05%
CCOC(=O)Cc1ccc(NC(=O)N2CC(C)Oc3ccc(Cl)cc32)cc1 (centres undefined) -28%
COc1cc2nc(NCc3ccccc3)n3nc(-c4ccccc4)nc3c2cc1OC -0.752%
CCOC(=O)c1cc(-c2ccccc2)n(-c2cccc(C(=O)N(C)c3ccc(C)cc3)c2)c1C -34.2%
Fc1ccc(N2CCN(Cc3cccn3-c3nnc(N4CCN(C5CCCCC5)CC4)s3)CC2)cc1 -5.98%
CCc1ccc(-c2nc(CSCC(=O)N3CCN(c4ccc(F)cc4)CC3)c(C)o2)cc1 -11%
Cc1ccc(NC(=O)C2CCCN(c3cnccn3)C2)c(C)c1 (centres undefined) -3.52%
Nc1ncnc2nc[nH]c12 -55.6%
CCc1ccccc1NC(=O)c1cc2c(Cl)nc3ccccc3c2s1 -7.14%
CCOC(=O)c1ccc(NC2=CC(c3ccc(F)cc3)N(c3ccc(C(=O)OCC)cc3)C2=O)cc1 (centres undefined) -3.51%
CCOc1ccccc1NC(=O)c1cc2c(=O)n(Cc3cccnc3)ccc2nc1C -2.63%
CCCOc1cccc(C(=O)Nc2ccc(-c3cc4ccccc4oc3=O)c(C)c2)c1 -7.83%
Cc1cccc(C)c1NC(=O)CCS(=O)(=O)c1cccc2nonc12 30.1%
Cc1c(NC(=O)c2ccc(Br)o2)cccc1-c1nc2ccccc2o1 9.73%
CCOC(=O)c1c(C)[nH]c(C)c1S(=O)(=O)N1CCC(C(=O)Nc2ccc(C)c(Cl)c2)CC1 9.72%
CC(=O)Nc1ccc(Nc2ncnc3c2c(-c2ccccc2)cn3-c2ccc(C)c(Cl)c2)cc1 -24.5%
CCCSc1nc2sc3c(c2c(=O)n1-c1cccc(Br)c1)CC(C)(C)OC3 -10.3%
Cc1ccccc1Cn1c(SCc2ccc(C(=O)NC3CCCC3)cc2)nc2ccncc21 3.65%
C=CCN1CCc2cc(O)c(O)cc2C(c2ccccc2)C1 (centres undefined) -2.48%
Cc1nc2c(c(C)nn2-c2ccccc2)c(C)c1CCC(=O)NCCc1ccc(Cl)cc1 -14.5%
COc1cccc(NC(=O)N2CCN(C(=O)c3nsc4ccccc34)CC2)c1 -21.8%
COc1ccccc1CNC(=O)CCNS(=O)(=O)c1cccc2nsnc12 -0.209%
COc1ccccc1N=c1scc(-c2ccc(S(=O)(=O)N3CCCC3)cc2)n1C 45.6%
COc1cc(C2NC(=O)c3c(sc4c3CCN(C)C4)N2)ccc1OC(=O)c1ccccc1 (centres undefined) -7.68%
COc1ccc(NC(=O)N2CCN3CCCCC3C2)cc1OC (centres undefined) -1.68%
COc1ccc(C(=O)Nc2ccccc2-c2nc3ccccc3s2)c(OC)c1 -7.83%
CCOc1cc(C2Sc3ccccc3NC3=C2C(=O)c2ccccc23)ccc1O (centres undefined) -55.8%
COc1ccc(Nc2cc(C(=O)NCCCN(C)Cc3ccccc3)c3ccccc3n2)cc1 -33%
CCOC(=O)c1ccc(NC(=O)CC2C(=O)N(c3ccc(F)cc3)C(=O)N2Cc2ccc(C)cc2)cc1 (centres undefined) -14.3%
CCOC(=O)c1cnc2ccc(Cl)cc2c1Nc1ccc(OCC)cc1 -32.5%
CC(=O)c1ccc(NC(=O)CSc2nc(C3CCCC3)nc3c2c(=O)n(C)c(=O)n3C)cc1 2.19%
Cc1nc(-n2nc(C)c(CCC(C)C)c2C)sc1C(=O)Nc1ccc(Br)cc1 1.48%
Cc1cccn2c(=O)cc(COc3cccc(NC(=O)COc4ccccc4)c3)nc12 -23.9%
CC(C)OCCCNC(=O)CSc1c2c(nc3ccc(Cl)cc13)CCCC2 -14.9%
COc1cccc(-c2nc3c(c(SCC(=O)Nc4cc(C)ccc4C)n2)Cc2c(CO)cnc(C)c2O3)c1 -1.5%
CCOC(=O)N1CCc2c(sc3c2c(=O)n(Cc2ccccc2)c(=O)n3Cc2ccc(C)cc2)C1 -13.1%
COc1ccc(CCNC(=O)CCCn2c(SCC(N)=O)nc3cc4c(cc3c2=O)OCO4)cc1OC -8.41%
CSc1ccc(CNC(=O)CCc2c(C)nn(-c3ccc(N4CCCC4)nn3)c2C)cc1 -19.9%
CC1CCN(c2oc(-c3ccc(COc4ccc(Cl)cc4)o3)nc2C#N)CC1 -9.77%
CCCCOc1ccccc1C(=O)Nc1onc2c1CCCC2 -12.3%
COc1ccc(CNC(=O)C2=C(C)C(=O)OC23CCN(C(C)=O)CC3)cc1 -0.119%
Cc1cc(C)c2nc(NC(=O)c3ccc(S(=O)(=O)N4CCC(C)CC4)cc3)sc2c1 7.29%
CCOc1ccccc1CNC(=O)c1ccc(Cn2c(SCc3ccccc3)nc3cccnc32)cc1 -16.8%
CC(C)OC(=O)/C(C#N)=C/c1ccc(-c2ccc(Cl)c(Cl)c2)o1 26.5%
CCc1ccc(NC(=O)Cn2c(-c3cncs3)nc3ccccc32)cc1 -14.1%
Cc1ccc(NC(=O)Cn2c(=O)n(Cc3ccc4c(c3)OCO4)c(=O)c3ccc(C(=O)NC4CCCCC4)cc32)c(C)c1 -10.4%
COc1ccc(C)cc1NC(=O)c1ccc2c(c1)nnn2C1CCCC1 5.24%
COc1ccccc1C(=O)Nc1ccc(OCc2cc(=O)n3cc(C)sc3n2)cc1 0.779%
CCn1c2ccccc2c2cc(CN3CCN(Cc4ccccc4C)CC3)ccc21 -12.3%
O=C(c1ccc2c(c1)N(Cc1cccc(Cl)c1)C(=O)c1ccccc1S2)N1CCOCC1 4.03%
Cc1ccc2[nH]c(=O)c3cc(C(=O)NCCc4ccc(Cl)cc4)sc3c2c1 -9.77%
